# The shares of active, inactive and inconclusive entries below differ from those in the screen. For some assays here: Where the call is inconclusive, the potency comes from a doubtful curve fit. A structure can be active in one record and inactive in another. Active and inactive are the calls of the source. Unless noted, the call rests on the fitted dose curve; in most records, active means well fitted curve in the direction sought with a large enough effect in the repeat runs; inconclusive means weak or mixed curves; inactive means no such curve, though single readings can be large; an effect the other way counts as inactive or inconclusive.
# Assays:
# [1] = qHTS assay to identify small molecule antagonists of the TGF-beta/Smad signaling pathway (AID 1346924; active means well fitted inhibition curve with a large enough effect in the signal ratio in the repeat runs, not every such curve was filed as active; inconclusive means weak or mixed curves; the % refers to the signal ratio); conditions: SBE-bla HEK293T, TGF-beta/Smad reporter, beta-lactamase ratio; activity, negative = inhibition: at 76.8 µM (top of the series) unless noted
# Procedure, shortened: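 Read-out was FRET-substrate fluorescence (405 nm excitation; 460 and 530 nm emission) after 2 h at room temperature. Before that, cells carrying a Smad-binding-element beta-lactamase reporter in HEK 293T had been stimulated 5 h at 37 C with TGF-beta1 (0.25 ng/mL addition solution) in the presence of test compound.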
# [2] = Human pregnane X receptor (PXR) small molecule agonists, qHTS cell viability counter screen (AID 1346977); further: nearly all actives have a fitted effect of over 50% in size
# Procedure, shortened: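 In each well, the PXR reporter HepG2 line was checked for viability: CellTiter-Fluor reagent added 23hr post-dosing, fluorescence read after 1hr incubation at 37C.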
# [3] = Caspase-3/7 induction in CHO-K1 cells by small molecules, qHTS cell viability counter screen (AID 1346979); further: nearly all actives have a fitted effect of over 35% in size
# Procedure, shortened: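 Following a 5hr settling period, CHO-K1 cells at 1,500 per well received DMSO-dissolved compounds. Cell viability was quantified 16hr later by CellTiter-Fluor fluorescence, measured after 1hr with reagent at 37C.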
# [4] = biological target: Nuclear receptor subfamily 1 group I member 2 (Rattus norvegicus) (UniProt Q9R1A7); experiment: Rat pregnane X receptor (rPXR) activation by small molecules, qHTS assay (AID 1346983); conditions: rPXR luciferase reporter cells, One-Glo luminescence, 24 h; max activation: hits give high values; further: nearly all actives have a fitted effect of over 20% in size
# Sequence of UniProt Q9R1A7 (Q9R1A7 whole entry, looked up): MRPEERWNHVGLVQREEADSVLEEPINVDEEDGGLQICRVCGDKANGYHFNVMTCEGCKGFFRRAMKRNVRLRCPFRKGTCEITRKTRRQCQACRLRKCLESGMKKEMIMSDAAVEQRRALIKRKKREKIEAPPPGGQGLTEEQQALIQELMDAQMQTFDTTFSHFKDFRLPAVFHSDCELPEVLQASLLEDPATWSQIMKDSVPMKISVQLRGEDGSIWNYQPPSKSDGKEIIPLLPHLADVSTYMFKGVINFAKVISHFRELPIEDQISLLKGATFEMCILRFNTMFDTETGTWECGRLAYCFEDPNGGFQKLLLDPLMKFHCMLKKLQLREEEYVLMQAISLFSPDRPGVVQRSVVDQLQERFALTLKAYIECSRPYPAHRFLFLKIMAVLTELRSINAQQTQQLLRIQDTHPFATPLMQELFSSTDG
# Procedure, shortened: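 Cell-based rPXR luciferase reporter assay, 2,000 cells per well, rested 5hr at 37 C before compound addition in DMSO, then 24 hr at 37 C. One-Glo reagent was added and luminescence read after 30 min at room temperature.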
# [5] = Caspase-3/7 induction in HepG2 cells by small molecules, qHTS cell viability counter screen (AID 1346981); further: nearly all actives have a fitted effect of over 30% in size
# Procedure, shortened: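 The parent HepG2 line is plated at 2,000 cells per well and rested 5 hr before compound pinning from DMSO stocks. Following a 16-hr treatment at 37 C, a fluorogenic live-cell substrate (CellTiter-Fluor) reports viability after 1 hr.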
# [6] = biological target: Nuclear receptor subfamily 1 group I member 2 (Homo sapiens) (UniProt O75469); experiment: Human pregnane X receptor (PXR) activation by small molecules, qHTS assay (AID 1346985); further: nearly all actives have a fitted effect of over 40% in size
# Procedure, shortened: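 DPX-2 cells (HepG2 co-transfected with a PXR response element and a CYP3A4-promoter luciferase construct) were seeded at 2,000 per well, rested 5 hr at 37C, then exposed to DMSO-dissolved compounds for 24 hr. Activation was read as luciferase luminescence.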
# [7] = Caspase-3/7 induction in HepG2 cells by small molecules, qHTS assay (AID 1346978); further: nearly all actives have a fitted effect of over 15% in size
# Procedure, shortened: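 Wild-type HepG2 cells (2,000/well) were settled 5 h at 37 C, 5% CO2, then exposed to compounds in DMSO for 17 h. Caspase-3/7 activity was read by luminescence 30 min after adding Caspase-Glo 3/7 reagent at room temperature.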
# [8] = Caspase-3/7 induction in CHO-K1 cells by small molecules, qHTS assay (AID 1346980); further: nearly all actives have a fitted effect of over 15% in size
# Procedure, shortened: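 Wild-type cells were seeded at 1,500 per well and settled 5 hr at 37 C, 5% CO2, then exposed to DMSO-dissolved compounds for 17 hr. Caspase-Glo 3/7 reagent was added, and luminescence was read after 30min at room temperature.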
# [9] = biological target: Cytochrome P450 1A2 (Homo sapiens) (UniProt P05177); experiment: Cytochrome P450 Family 1 Subfamily A Member 2 (CYP1A2) small molecule antagonists: luciferase reporter qHTS assay (AID 1671199); further: nearly all actives have a fitted effect of over 50% in size
# Sequence of UniProt P05177 (P05177 whole entry, looked up): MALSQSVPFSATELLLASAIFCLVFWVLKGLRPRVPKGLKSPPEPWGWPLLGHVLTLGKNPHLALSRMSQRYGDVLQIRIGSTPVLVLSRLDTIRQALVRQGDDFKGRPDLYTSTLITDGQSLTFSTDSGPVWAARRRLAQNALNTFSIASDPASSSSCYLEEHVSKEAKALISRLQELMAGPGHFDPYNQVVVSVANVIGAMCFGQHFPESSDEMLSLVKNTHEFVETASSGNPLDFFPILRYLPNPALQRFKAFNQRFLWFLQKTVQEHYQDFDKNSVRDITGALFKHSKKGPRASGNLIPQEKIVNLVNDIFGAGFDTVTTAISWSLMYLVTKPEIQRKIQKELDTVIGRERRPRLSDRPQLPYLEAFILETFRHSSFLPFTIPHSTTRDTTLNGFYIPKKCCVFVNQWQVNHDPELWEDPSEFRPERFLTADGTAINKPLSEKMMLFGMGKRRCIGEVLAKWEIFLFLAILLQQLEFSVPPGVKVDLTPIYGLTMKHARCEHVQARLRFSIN
# Procedure, shortened: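 Quantitative high-throughput format using the P450-Glo CYP1A2 system. Reaction initiated by NADPH regeneration solution, 1 h at room temperature, then stopped with detection reagent; luminescence measured 20 min later.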
# [10] = biological target: Cytochrome P450 2D6 (Homo sapiens) (UniProt P10635); experiment: Cytochrome P450 Family 2 Subfamily D Member 6 (CYP2D6) small molecule antagonists: luciferase reporter qHTS assay (AID 1671196); further: nearly all actives have a fitted effect of over 50% in size
# Sequence of UniProt P10635 (P10635 whole entry, looked up): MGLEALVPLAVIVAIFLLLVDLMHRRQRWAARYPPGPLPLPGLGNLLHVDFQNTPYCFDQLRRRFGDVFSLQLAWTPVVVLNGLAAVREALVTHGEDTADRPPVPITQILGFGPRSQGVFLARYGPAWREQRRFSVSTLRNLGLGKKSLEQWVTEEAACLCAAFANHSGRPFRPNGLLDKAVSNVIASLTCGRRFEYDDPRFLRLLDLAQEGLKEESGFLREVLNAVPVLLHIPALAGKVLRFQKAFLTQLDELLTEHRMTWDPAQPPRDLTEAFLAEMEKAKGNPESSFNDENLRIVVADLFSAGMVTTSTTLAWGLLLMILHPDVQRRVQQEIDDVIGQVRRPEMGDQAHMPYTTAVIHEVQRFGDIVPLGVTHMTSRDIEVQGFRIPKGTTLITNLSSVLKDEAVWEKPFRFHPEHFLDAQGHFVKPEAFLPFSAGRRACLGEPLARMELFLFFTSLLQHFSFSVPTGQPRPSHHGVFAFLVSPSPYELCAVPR
# Procedure, shortened: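 Quantitative HTS of Tox21 chemicals against CYP2D6 using a luminescent proluciferin substrate. After NADPH addition, 1 h room-temperature reaction; luminescence recorded 20 min post detection reagent.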
# [11] = biological target: Cytochrome P450 2C9 (Homo sapiens) (UniProt P11712); experiment: Cytochrome P450 Family 2 Subfamily C Member 9 (CYP2C9) small molecule antagonists: luciferase reporter qHTS assay (AID 1671198); further: nearly all actives have a fitted effect of over 50% in size
# Sequence of UniProt P11712 (P11712 whole entry, looked up): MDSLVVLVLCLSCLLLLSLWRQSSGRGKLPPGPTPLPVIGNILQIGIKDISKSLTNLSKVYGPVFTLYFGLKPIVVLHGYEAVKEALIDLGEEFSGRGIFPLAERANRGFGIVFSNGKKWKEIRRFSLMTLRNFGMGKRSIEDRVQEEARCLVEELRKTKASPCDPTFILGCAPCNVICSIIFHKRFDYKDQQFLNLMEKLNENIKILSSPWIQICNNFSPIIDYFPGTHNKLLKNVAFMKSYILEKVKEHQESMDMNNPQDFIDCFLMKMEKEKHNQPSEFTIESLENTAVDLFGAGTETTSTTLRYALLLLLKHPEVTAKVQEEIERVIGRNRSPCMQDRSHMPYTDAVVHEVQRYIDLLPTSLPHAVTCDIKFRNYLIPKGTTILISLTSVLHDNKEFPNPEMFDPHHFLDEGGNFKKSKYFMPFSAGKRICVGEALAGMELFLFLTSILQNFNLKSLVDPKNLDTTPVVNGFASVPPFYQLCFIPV
# Procedure, shortened: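 CYP2C9 activity was measured with a P450-Glo proluciferin substrate. Enzyme–substrate mix was held with compound for 10 min at room temperature, then NADPH regeneration solution was added for 1 h at 37C. Luciferin product was read as luminescence.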
# [12] = biological target: Voltage-gated inwardly rectifying potassium channel KCNH2 (Homo sapiens) (UniProt Q12809); experiment: Human Ether-a-go-go-Related Gene (hERG) channel small molecule antagonists: fluorescence cell-based qHTS assay (AID 1671200); further: nearly all actives have a fitted effect of over 50% in size
# Sequence of UniProt Q12809 (Q12809 whole entry, looked up): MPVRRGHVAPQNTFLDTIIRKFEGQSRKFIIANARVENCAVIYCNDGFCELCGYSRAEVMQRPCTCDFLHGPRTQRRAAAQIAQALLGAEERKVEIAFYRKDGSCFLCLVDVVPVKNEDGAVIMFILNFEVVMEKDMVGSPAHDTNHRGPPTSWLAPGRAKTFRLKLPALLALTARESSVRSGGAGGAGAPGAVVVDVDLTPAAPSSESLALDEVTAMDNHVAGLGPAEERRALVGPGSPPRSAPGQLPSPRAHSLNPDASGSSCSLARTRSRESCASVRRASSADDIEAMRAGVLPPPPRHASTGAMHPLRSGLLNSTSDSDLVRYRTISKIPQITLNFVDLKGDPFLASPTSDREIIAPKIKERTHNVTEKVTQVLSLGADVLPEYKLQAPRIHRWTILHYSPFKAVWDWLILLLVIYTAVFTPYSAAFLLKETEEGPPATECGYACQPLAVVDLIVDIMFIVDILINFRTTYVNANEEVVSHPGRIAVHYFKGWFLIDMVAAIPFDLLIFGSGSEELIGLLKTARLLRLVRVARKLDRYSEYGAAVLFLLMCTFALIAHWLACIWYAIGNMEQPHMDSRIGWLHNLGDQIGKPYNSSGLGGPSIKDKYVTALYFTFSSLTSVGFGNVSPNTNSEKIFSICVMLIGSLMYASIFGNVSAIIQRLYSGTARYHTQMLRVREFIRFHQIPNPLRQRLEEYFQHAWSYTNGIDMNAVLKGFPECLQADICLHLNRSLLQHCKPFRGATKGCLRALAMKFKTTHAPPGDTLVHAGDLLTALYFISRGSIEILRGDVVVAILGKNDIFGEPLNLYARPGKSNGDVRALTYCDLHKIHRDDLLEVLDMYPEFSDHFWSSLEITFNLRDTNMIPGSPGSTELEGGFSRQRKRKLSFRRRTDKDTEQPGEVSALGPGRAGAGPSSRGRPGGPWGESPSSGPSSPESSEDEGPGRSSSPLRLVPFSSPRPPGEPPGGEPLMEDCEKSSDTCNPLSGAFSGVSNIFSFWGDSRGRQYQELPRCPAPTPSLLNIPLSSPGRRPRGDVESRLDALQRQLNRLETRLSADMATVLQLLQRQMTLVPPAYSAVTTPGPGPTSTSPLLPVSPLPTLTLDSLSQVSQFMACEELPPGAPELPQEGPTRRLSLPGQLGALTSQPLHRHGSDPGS
# Procedure, shortened: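 In this thallium-flux screen, overnight-cultured U2OS cells bearing the channel are dye-loaded in darkness for an hour, rested 10 min at room temperature, and then monitored kinetically at 480/540 nm for two minutes post-stimulus.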
# [13] = biological target: Cytochrome P450 3A4 (Homo sapiens) (UniProt P08684); experiment: Cytochrome P450 Family 3 Subfamily A Member 4 (CYP3A4) small molecule antagonists: luciferase reporter qHTS assay (AID 1671201); further: nearly all actives have a fitted effect of over 50% in size
# Sequence of UniProt P08684 (P08684 whole entry, looked up): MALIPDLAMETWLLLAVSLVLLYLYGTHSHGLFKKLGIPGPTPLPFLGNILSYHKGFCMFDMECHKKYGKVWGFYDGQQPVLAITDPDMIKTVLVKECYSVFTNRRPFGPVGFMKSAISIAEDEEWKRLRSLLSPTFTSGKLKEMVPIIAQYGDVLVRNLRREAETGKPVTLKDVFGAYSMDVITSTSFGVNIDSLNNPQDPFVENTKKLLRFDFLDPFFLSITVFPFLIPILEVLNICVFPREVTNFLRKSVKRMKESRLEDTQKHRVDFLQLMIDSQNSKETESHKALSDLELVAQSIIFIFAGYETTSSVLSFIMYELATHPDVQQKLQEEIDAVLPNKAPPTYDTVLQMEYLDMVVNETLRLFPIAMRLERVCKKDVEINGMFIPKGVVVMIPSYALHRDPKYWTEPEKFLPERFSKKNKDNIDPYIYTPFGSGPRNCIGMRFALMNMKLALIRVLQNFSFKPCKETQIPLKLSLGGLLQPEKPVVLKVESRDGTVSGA
# Procedure, shortened: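 CYP3A4 activity was followed with a P450-Glo proluciferin substrate. Test compounds in DMSO were preincubated 10 min; NADPH regeneration then ran 1 h, and light output was read 20 min after detection reagent.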
# [14] = biological target: Cytochrome P450 2C19 (Homo sapiens) (UniProt P33261); experiment: Cytochrome P450 Family 2 Subfamily C Member 19 (CYP2C19) small molecule antagonists: luciferase reporter qHTS assay (AID 1671197); further: nearly all actives have a fitted effect of over 65% in size
# Sequence of UniProt P33261 (P33261 whole entry, looked up): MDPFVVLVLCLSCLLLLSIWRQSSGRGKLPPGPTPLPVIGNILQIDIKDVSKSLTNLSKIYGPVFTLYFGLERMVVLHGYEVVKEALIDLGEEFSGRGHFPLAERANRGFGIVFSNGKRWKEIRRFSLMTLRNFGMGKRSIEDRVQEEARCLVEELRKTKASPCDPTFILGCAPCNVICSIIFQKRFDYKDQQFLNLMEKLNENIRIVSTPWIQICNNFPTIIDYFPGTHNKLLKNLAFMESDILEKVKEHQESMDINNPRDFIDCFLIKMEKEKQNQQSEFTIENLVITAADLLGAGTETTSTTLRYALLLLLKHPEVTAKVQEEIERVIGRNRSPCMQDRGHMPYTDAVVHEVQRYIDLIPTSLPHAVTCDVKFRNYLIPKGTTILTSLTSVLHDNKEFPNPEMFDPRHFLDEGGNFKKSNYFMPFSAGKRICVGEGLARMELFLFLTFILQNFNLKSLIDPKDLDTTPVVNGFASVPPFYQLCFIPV
# Procedure, shortened: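 P450-Glo CYP2C19 system: enzyme-substrate mix with compound 10 min at room temperature, then NADPH regeneration solution, 1 h at 37C. Proluciferin-to-luciferin conversion detected by luminescence after 20 min with detection reagent; ketoconazole as positive control.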
# Potency means the concentration at half of the fitted maximal effect; tags describe the fitted curve by direction and shape or compound fluorescence and quenching.
smiles,measurement,setting,value
CC(=O)OCC(=O)[C@@]1(O)CC[C@H]2[C@@H]3CCC4=CC(=O)C=C[C@]4(C)[C@@]3(F)[C@@H](O)C[C@@]21C,"activity, negative = inhibition",[1],inconclusive: 1.18% [at 35.3 µM]
same,Potency,[2],inactive
same,Potency,[3],"inconclusive: 26.6 µM [rising, partial curve]"
same,Potency,[4],active: 8.91 µM
CN1CCC(=C2c3ccccc3Sc3ccccc32)CC1,"activity, negative = inhibition",[1],inconclusive: -2.83% [at 35.3 µM]
same,Potency,[2],active: 23.7 µM
same,Potency,[3],"inconclusive: 23.7 µM [cytotoxic, partial curve]"
same,Potency,[5],"inconclusive: 26.6 µM [cytotoxic, partial curve, poor fit]"
same,Potency,[6],active: 14.1 µM
O=S1(=O)CC=CC1,"activity, negative = inhibition",[1],inconclusive: 0.792%
same,Potency,[7],active: 59 µM
same,Potency,[3],active: 29.6 µM
same,Potency,[8],"inconclusive: 26.4 µM [activator, single point]"
same,Potency,[9],inactive
CCn1nc(Cc2ccccc2)cc1C1CCN(C[C@H]2C[C@H](N(C)[C@@H](C(=O)O)C(C)C)C[C@@H]2c2cccc(F)c2)CC1,Potency,[1],"inconclusive: 24.5 µM [fluorescent, partial curve]"
same,Potency,[2],"inconclusive: 61.1 µM [cytotoxic, partial curve]"
same,Potency,[5],"inconclusive: 77 µM [cytotoxic, single point]"
same,Potency,[10],active: 35.6 µM
same,Potency,[11],"inconclusive: 79.6 µM [inhibitor, partial curve]"
same,Potency,[9],"inconclusive: 71 µM [inhibitor, partial curve]"
same,Potency,[12],active: 13.8 µM
same,Potency,[13],"inconclusive: 8.94 µM [inhibitor, full curve]"
CCN(CC)CCNc1ccc(CNC=O)c2sc3ccc(OC)cc3c(=O)c12,"activity, negative = inhibition",[1],inconclusive: -2.23%
same,Potency,[2],active: 9.69 µM
same,Potency,[8],active: 30.6 µM
same,Potency,[5],active: 9.69 µM
same,Potency,[10],active: 6.33 µM
same,Potency,[14],"inconclusive: 89.4 µM [inhibitor, single point]"
same,Potency,[13],active: 20 µM
